From PMC4336329 (PLoS ONE, 2015) come the findings set out here.

Screen size: about 310,000 compounds; about 2,200 (0.71%) showed an effect of 50% or more. Effects have a minus sign here. Some of the results follow.

In the experiment the target is human ether-à-go-go-related gene (hERG) potassium channel (human, UniProt Q12809). Description: primary screen, population patch clamp on CHO cells stably expressing hERG.
human ether-à-go-go-related gene (hERG) potassium channel, sequence (Q12809 whole entry, looked up): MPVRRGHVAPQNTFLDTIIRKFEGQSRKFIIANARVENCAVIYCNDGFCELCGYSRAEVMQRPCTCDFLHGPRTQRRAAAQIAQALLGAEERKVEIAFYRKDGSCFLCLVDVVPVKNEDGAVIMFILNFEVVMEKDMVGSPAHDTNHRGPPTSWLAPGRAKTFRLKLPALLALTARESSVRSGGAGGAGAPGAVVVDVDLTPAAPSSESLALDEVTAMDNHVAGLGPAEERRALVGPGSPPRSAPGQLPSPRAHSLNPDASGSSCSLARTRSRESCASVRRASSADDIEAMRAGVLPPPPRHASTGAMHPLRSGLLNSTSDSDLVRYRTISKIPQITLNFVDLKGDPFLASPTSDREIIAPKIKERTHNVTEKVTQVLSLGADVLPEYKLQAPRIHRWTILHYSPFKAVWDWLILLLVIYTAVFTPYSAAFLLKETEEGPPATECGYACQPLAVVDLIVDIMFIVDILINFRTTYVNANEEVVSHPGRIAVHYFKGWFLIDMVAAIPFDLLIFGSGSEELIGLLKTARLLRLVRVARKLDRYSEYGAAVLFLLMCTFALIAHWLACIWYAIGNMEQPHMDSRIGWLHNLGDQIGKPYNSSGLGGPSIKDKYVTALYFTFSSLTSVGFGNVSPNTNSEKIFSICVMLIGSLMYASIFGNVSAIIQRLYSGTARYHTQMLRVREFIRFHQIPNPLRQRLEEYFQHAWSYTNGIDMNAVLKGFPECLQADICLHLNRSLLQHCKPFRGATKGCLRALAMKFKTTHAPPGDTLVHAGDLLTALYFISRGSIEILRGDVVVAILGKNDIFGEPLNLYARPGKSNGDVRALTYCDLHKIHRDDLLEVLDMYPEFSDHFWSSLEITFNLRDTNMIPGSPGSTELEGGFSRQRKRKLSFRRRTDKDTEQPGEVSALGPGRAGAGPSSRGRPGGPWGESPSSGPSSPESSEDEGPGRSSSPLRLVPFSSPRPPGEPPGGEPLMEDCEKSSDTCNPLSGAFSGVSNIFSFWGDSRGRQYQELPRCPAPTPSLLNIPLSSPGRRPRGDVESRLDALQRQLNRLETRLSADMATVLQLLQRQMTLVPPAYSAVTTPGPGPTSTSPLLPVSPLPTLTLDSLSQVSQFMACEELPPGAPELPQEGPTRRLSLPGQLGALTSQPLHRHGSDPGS
For `COc1cc(/C=N/n2cnnc2)ccc1OCc1ccccc1`, the “hERG current change (%, negative = inhibition) at 1uM” value is on record as 18.4%.
Regarding `COC(=O)CCC(=O)N1CCCC(C(=O)c2ccc(Cl)cc2C)C1` (centres unmarked), the “hERG current change (%, negative = inhibition) at 1uM” value turned out to be 1%.
The same measure for `CC(=O)Nc1ccc(C(=O)N2CCCc3ccccc32)cc1`: 4.52%.
For `NC(=S)N/N=C/c1cccc(/C=N/NC(N)=S)c1`, the “hERG current change (%, negative = inhibition) at 1uM” value amounted to 11.7%.
For the compound `CCc1noc(C)c1C(=O)N(CCC(C)C)c1c(N)n(Cc2ccccc2)c(=O)[nH]c1=O`, the “hERG current change (%, negative = inhibition) at 1uM” value is recorded as -8.9%.
In the case of `Cc1cc(C)n2nc(C(=O)OCC(=O)NC3CCCCC3)nc2n1`, the “hERG current change (%, negative = inhibition) at 1uM” value turned out to be 13.7%.
Under `Cc1nc(/C=C/c2ccccc2)[nH]c(=O)c1-c1ccccc1` stands 15.9%; under `COc1cc(OC)c(C(=O)Nc2cc(Cl)ccc2-n2cncn2)cc1OC`, -16.5%; under `CC1CCCC(NC(=S)Nc2ccc(SC(F)F)cc2)C1C` (centres unmarked), -0.956%.
The same measure for `Cc1ccc(C(=O)NC2CCCCNC2=O)cc1C` (centres unmarked): 12.8%; for `Cc1ccc(C(=O)Nc2ccccc2C(=O)NCC2CCCO2)cc1` (centres unmarked): 1.56%.
For `COCCN(Cc1nnc(-c2cccs2)o1)C(=O)c1cccc(S(=O)(=O)N2CCOCC2)c1`, the “hERG current change (%, negative = inhibition) at 1uM” value was found to be 6.12%.
For the compound `COC(=O)C1=C(C)Nc2ncnn2C1c1ccc(OC(=O)c2ccccc2)cc1` (centres unmarked), the “hERG current change (%, negative = inhibition) at 1uM” value is reported as 8.82%.
The same measure for `Nc1cc(C(=O)OCC(=O)N2CCC(Cc3ccccc3)CC2)ccc1Cl`: -1.43%.
Under `COC(=O)c1ccc(NC(=O)CN2CCN(CCO)CC2)cc1.Cl` stands -0.87%.
The same measure for `CC(NC(=O)COC(=O)C1CCN(c2ccc(C(F)(F)F)cn2)CC1)c1ccc(F)cc1` (centres unmarked): 14.2%.
On to `O=C(Nc1nnc(SCC(=O)N2CCOCC2)s1)C1CC(=O)N(c2ccccc2)C1` (centres unmarked), for which the “hERG current change (%, negative = inhibition) at 1uM” value amounted to 22.6%.
The same measure for `Cc1noc(NS(=O)(=O)c2ccc(NC(=O)CC34CC5CC(CC(Br)(C5)C3)C4)cc2)c1C`: 15.2%.
Under `CC(C)(C)C(=O)Nc1cc2c3c(c1)CCN3C(=O)CC2` stands 15.1%.
Under `COc1ccc(-c2nc3ccccn3c2/N=C/c2ccc(OC)c(OC)c2)cc1O` stands -42.7%; under `CCOc1ccc(NCc2nc3ccccc3n2CCOc2ccccc2)cc1`, 5.34%.
Turning to `Cl.NCc1cc2c3c(c1)CCCN3CCC2`, the “hERG current change (%, negative = inhibition) at 1uM” value is 15.4%.
For the compound `O=c1c2ccccc2nc(/C=C/c2ccc3c(c2)OCO3)n1-c1ccccc1`, the “hERG current change (%, negative = inhibition) at 1uM” value stood at 3.51%.
The same measure for `FC(F)(F)c1cccc(N2CCN(C(=S)NC3CCCC3)CC2)c1`: 12.5%; for `CCCC(NS(=O)(=O)c1ccc(-c2ccc(=O)[nH]n2)s1)c1cccs1` (centres unmarked): 5.65%.
Consider `COCCNC(=O)CSc1nc2cc3c(cc2c(=O)n1Cc1ccco1)OCO3`, for which the “hERG current change (%, negative = inhibition) at 1uM” value is reported as -10.3%.
Under `Nc1ccccc1S(=O)(=O)c1ccccc1N` stands 15.2%.
In the case of `CCOC(=O)N1CCC(NC(=O)c2cccnc2SC)CC1`, the “hERG current change (%, negative = inhibition) at 1uM” value turned out to be 19.7%.
The same measure for `CCOc1ccc(S(=O)(=O)N(CC(=O)Nc2cc(C)on2)Cc2ccccc2Cl)cc1`: 9.6%; for `O=[N+]([O-])c1cc([N+](=O)[O-])c(Oc2cc(F)cc(F)c2)cc1NN1CCCCC1`: 18.3%; for `Cc1cccc(NC(=O)c2ccc(NS(=O)(=O)c3c(C)noc3C)cc2)c1`: -17.2%.
As for `COc1ccccc1CCN=C(N)NS(=O)(=O)c1ccccc1F`, the “hERG current change (%, negative = inhibition) at 1uM” value was 4.21%.
Under `Nc1nonc1-n1nnc(C(=O)N/N=C/c2ccc(Br)cc2)c1CN1CCOCC1` stands 8.62%.
The same measure for `COc1ccc(C=O)cc1Cn1cnc2c(cnn2C)c1=O`: 4.7%.
The same measure for `Cc1nn(CC(=O)N2CCOCC2)c(C)c1[N+](=O)[O-]`: 4.38%.
`O=C(NC(N1CCOCC1)C(Cl)(Cl)Cl)c1ccc(F)cc1` (centres unmarked): the “hERG current change (%, negative = inhibition) at 1uM” value is on record as 9.45%.
For the compound `O=C(CS(=O)Cc1ccccc1Cl)Nc1ccccc1Cl` (centres unmarked), the “hERG current change (%, negative = inhibition) at 1uM” value came out at 15.5%.
With `Cn1ncc2c(O/N=C(\N)c3ccc(C(C)(C)C)cc3)ncnc21`, the “hERG current change (%, negative = inhibition) at 1uM” value turned out to be 11.6%.
The same measure for `CCCN(CCC)Cc1cc(=O)oc2cc3c(cc12)CCC3`: 11.4%; for `CCCCCCOc1ccc(/C(C)=N/NC2=NCCN2)cc1[N+](=O)[O-]`: -49.4%.
The same measure for `Cc1c(NC(=O)Nc2ccc(Cl)cc2Cl)c(=O)n(-c2ccccc2)n1C`: 5.54%; for `CCOC(=O)c1[nH]c2ccccc2c1NC(=O)C1CCCCC1`: 18.7%; for `Cc1nc2c(Cl)c(C)nn2c2c1CCC2`: -2.28%.
Under `CC(C(=O)N1CCCCCC1)c1ccc([N+](=O)[O-])cc1` (centres unmarked) stands 4.63%.
For the compound `CCCn1c(C(CO)Nc2nc(C)cs2)nc2ccccc21` (centres unmarked), the “hERG current change (%, negative = inhibition) at 1uM” value came out at 2.93%.
For `CCC(C)[C@H](NC(=O)[C@H](Cc1ccccc1)n1c(=O)[nH]c2ccccc2c1=O)C(=O)N1CCC[C@@H]1C(=O)O` (some centres unmarked), the “hERG current change (%, negative = inhibition) at 1uM” value came to 11.4%.
Under `O=C(Nc1cc(C(F)(F)F)ccc1N1CCOCC1)c1cccnc1Cl` stands 6.31%; under `COc1cc(C=C2C(=O)c3ccccc3C2=O)ccc1O`, 8.84%.
Under `Cc1ccc(N(C(=O)C(F)(F)F)C(C(=O)NC2CCCCC2)c2cccs2)cc1C` (centres unmarked) stands 12.3%; under `O=c1c(-n2cncn2)c[nH]n1-c1cccc(Cl)n1`, 12.2%.
The same measure for `COc1ccc(CN(CC(=O)NC2CCCC2)C(=O)c2ccc(-c3ccccc3)[nH]2)cc1`: 0.812%; for `COC(=O)c1cc(O)c(O)c(O)c1`: 6.96%; for `O=[N+]([O-])c1ccc2c(c1)nc1n2CCN(CC2CCCO2)C1` (centres unmarked): 4.12%.
Take `CCC(=NCc1ccc(F)cc1)c1c(O)n(C)c(=O)n(C)c1=O`: the “hERG current change (%, negative = inhibition) at 1uM” value is -3.9%.
The same measure for `CCOC(=O)C1=C(c2ccccc2)NC(=O)NC1c1cc(Br)c(O)c(OC)c1` (centres unmarked): 8.6%.
The same measure for `CC(=O)NC(CCS(C)(=O)=O)C(=O)Nc1ccc2c(c1)OCCO2` (centres unmarked): -2.18%.
The same measure for `CC(C)C(C(=O)Nc1nccs1)c1ccccc1` (centres unmarked): 7.7%; for `O=C(Cc1ccc(S(=O)(=O)N2CCOCC2)s1)N1CCN(S(=O)(=O)c2ccc(Cl)cc2)CC1`: -5.52%; for `O=C(Nc1cccc(Cl)c1)c1cc(S(=O)(=O)NCCc2ccc(Cl)cc2)ccc1F`: 11.9%.
For the compound `CCn1c(SCC(=O)Nc2ccccc2)nc2nc3c(cc2c1=O)COC(C)(C)C3`, the “hERG current change (%, negative = inhibition) at 1uM” value is given as -12.4%.
Under `CC(C)c1ccc(C(=O)Nc2nnc(S(=O)(=O)N3CCOCC3)s2)cc1` stands -2.75%; under `O=C(Nc1ccc(S(=O)(=O)NC2=NCCCCC2)cc1)c1ccco1`, 6.55%; under `O=S(=O)(Cc1ccccc1)Nc1ccc(S(=O)(=O)NCC2CCCO2)cc1` (centres unmarked), -0.919%.
With `C[C@H]1CN=C(N(C)C)N1CCCC1CCCC1`, the “hERG current change (%, negative = inhibition) at 1uM” value was -6.72%.
Regarding `O=C(Nc1ccc(-c2csc(Nc3ccccc3)n2)cc1)c1ccccc1`, the “hERG current change (%, negative = inhibition) at 1uM” value worked out at 14.3%.
The same measure for `CC1CCN(C(=O)CSC2=NS(=O)(=O)c3cc(F)ccc3N2)CC1`: 6.34%.
The same measure for `COc1cc(Cl)c(S(=O)(=O)NCCCn2ccnc2)cc1Cl`: 12.3%; for `Cc1cc(N2CCOCC2)n2nc(-c3cccc(F)c3)cc2n1`: 4.77%.
The same measure for `CC(C)N(C(=O)C(F)(F)F)C(C(=O)NC1CCCCC1)c1ccncc1` (centres unmarked): 4.94%; for `COc1ccc(S(=O)(=O)Nc2ccc(S(=O)(=O)N3CCCCC3)cc2)cc1OC`: 5.82%.
As for `S=C(NCc1ccc2c(c1)OCO2)NCc1ccco1`, the “hERG current change (%, negative = inhibition) at 1uM” value amounted to 10.8%.
Under `CCOC(=O)C1CCCN(C(=O)c2cc3ccccc3oc2=O)C1` (centres unmarked) stands 12.8%; under `CC(C)Oc1ccc(C2C(C(=O)c3ccco3)=C(O)C(=O)N2Cc2cccnc2)cc1` (centres unmarked), 16.9%.
Regarding `CC(=O)Nc1ccccc1-c1nnc(SCc2ccccc2Cl)[nH]c1=O`, the “hERG current change (%, negative = inhibition) at 1uM” value amounted to 11.7%.
The same measure for `Cc1ccc(C(=O)NCC(c2ccco2)N2CCCCC2)s1` (centres unmarked): -10.9%.
The same measure for `NC(=O)CC(NC(=O)Cc1ccc(Cl)cc1)c1ccc(NCCN2CCOCC2)c([N+](=O)[O-])c1` (centres unmarked): 15.4%.
Under `Cc1cccc(NS(=O)(=O)c2cccs2)c1` stands 10.7%; under `O=C(NCc1ccc2c(c1)OCO2)C(=O)NCC1CCCO1` (centres unmarked), 9.79%.
For `COc1ccc(/C(O)=C2\C(=O)C(=O)N(CCN(C)C)C2c2cc(OC)c(OC)c(OC)c2)c(C)c1` (centres unmarked), the “hERG current change (%, negative = inhibition) at 1uM” value was found to be 3.85%.
Under `Cl.O=C(NCCCN1CCOCC1)c1ccc(Cl)c(S(=O)(=O)N2CCCCCC2)c1` stands -18.9%; under `CS(=O)(=O)NCc1ccc(C(=O)NCc2ccccc2)cc1`, 10.6%.
Regarding `C=COCCNC(=S)Nc1ccccc1`, the “hERG current change (%, negative = inhibition) at 1uM” value is reported as 12%.
The same measure for `Cc1cccc(C(=O)NC(NC(=S)Nc2ccc(S(N)(=O)=O)cc2)C(Cl)(Cl)Cl)c1` (centres unmarked): 20.3%; for `O=C(NCCCC1CCCC1)C1CCC(=O)N(Cc2cccc(C(F)(F)F)c2)C1` (centres unmarked): 5.47%; for `CN(C)C(=O)Cn1c(SCC(=O)N2CCCc3ccccc32)nc2ccccc21`: 5.13%.
In the case of `CC(C)N1CCN(Cc2ccccc2C(F)(F)F)CC1CCO` (centres unmarked), the “hERG current change (%, negative = inhibition) at 1uM” value turned out to be 2.24%.
With `C=CCNC(=S)NNC(=O)COc1ccc(Br)cc1`, the “hERG current change (%, negative = inhibition) at 1uM” value was found to be 7.76%.
Regarding `Cc1cc2c(cc1C)NC(c1c(C)n(C)n(-c3ccccc3)c1=O)C1=C(CC(C)(C)CC1=O)N2` (centres unmarked), the “hERG current change (%, negative = inhibition) at 1uM” value was -1.71%.
The same measure for `COC(=O)Cc1ccc(NC(C)=O)cc1`: 6.94%.
